# Assay results from PubChem BioAssay AID504332 (National Center for Advancing Translational Sciences (NCATS), 2011).
# In all, about 350,000 compounds went through this assay and about 31,000 (8.9%) were called active. Inconclusive results, whose numbers are uncertain, are shown with a selection of clear calls. The call rests on the fitted dose curve; in most records, active means well fitted inhibition curve with a large enough effect; inconclusive means small, poorly fitted or top-dose-only effect; inactive means no such curve, though single readings can be large or run the other way. A potency beside an inconclusive call is a rough fit, not a confirmed value.
# Molecular target: Histone-lysine N-methyltransferase EHMT2 (Homo sapiens) (UniProt Q96KQ7)
# Sequence of UniProt Q96KQ7 (Q96KQ7 whole entry, looked up): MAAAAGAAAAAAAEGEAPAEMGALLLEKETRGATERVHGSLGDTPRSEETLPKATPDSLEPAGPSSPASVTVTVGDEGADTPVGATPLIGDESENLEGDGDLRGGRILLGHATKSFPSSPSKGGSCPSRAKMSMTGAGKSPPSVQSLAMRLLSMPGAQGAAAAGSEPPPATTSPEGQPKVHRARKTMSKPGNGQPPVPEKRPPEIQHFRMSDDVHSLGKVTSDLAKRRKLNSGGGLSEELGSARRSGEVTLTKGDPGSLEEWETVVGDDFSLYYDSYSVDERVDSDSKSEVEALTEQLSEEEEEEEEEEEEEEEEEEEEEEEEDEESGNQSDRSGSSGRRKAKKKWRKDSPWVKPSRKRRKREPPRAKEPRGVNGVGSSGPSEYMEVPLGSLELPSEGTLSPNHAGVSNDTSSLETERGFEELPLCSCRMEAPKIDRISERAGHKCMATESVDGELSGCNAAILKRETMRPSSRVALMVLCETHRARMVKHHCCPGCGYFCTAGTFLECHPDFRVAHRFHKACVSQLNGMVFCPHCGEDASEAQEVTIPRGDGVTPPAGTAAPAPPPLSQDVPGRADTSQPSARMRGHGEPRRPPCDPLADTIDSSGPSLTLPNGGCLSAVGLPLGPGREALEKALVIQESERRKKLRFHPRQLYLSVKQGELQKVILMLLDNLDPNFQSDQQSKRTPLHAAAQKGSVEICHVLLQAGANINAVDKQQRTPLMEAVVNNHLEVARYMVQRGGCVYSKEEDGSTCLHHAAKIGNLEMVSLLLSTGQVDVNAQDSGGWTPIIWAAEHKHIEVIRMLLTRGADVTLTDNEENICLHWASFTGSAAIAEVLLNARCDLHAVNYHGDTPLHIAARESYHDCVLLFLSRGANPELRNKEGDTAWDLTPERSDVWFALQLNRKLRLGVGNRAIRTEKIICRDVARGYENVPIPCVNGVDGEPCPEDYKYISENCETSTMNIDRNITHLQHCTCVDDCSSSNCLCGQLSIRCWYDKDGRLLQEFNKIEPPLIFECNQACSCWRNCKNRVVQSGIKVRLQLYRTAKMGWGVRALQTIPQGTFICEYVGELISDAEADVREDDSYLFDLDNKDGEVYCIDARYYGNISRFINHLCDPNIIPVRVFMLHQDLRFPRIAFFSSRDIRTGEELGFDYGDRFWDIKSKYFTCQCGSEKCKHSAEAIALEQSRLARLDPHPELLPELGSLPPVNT
# Assay: qHTS Assay for Inhibitors of Histone Lysine Methyltransferase G9a; further: nearly all actives have a fitted effect of over 75% in size
# Settings: G9a H3K9 monomethylation, AlphaScreen, 2 h; activity, negative = inhibition: at 59 µM (top of the series) unless noted
# Method in brief: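 AlphaScreen read-out: biotin-H3K9 peptide (500 nM) methylation by 20 nM enzyme with 20 uM SAM, 2 h at room temperature after 15 min compound preincubation; anti-monomethyl H3K9 antibody plus donor/acceptor beads, 10 min dark.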
# On the % scale 0 is the no-effect control and ±100 the full control effect; potency means the concentration at half of the fitted maximal effect; tags describe the fitted curve by direction and shape.
Structure (SMILES),Potency,"activity, negative = inhibition"
CCOC(=O)C1CCN(C(c2cccc(F)c2)c2c(O)cc(C)n(CCOC)c2=O)CC1 (stereo unspecified),inactive,–
COCCNC(=O)c1cnc2sc(N3CCC(C)CC3)nn2c1=O,inactive,–
C/C(=N\Nc1ccc(Cl)c(C(=O)O)c1)c1ccc[nH]1,active: 25.1 µM,–
Cc1cccc(CNC(=O)CS(=O)(=O)c2cccc3nsnc23)c1,inactive,–
COc1ccc(-n2nc3c(c2NC(=O)COc2cccc(OC)c2)CS(=O)(=O)C3)cc1,active: 17.8 µM,–
COc1ccc(N2C(S)=C(C#N)C(=O)NC23CCCCC3)cc1,active: 35.5 µM,–
Cc1nn(C)cc1C(=O)/C=C/c1ccc([N+](=O)[O-])cc1,inactive,–
COc1ccc(OC)c(NC(=O)CCC(=O)N(Cc2ccc(OC)c(OC)c2)c2nccs2)c1,"inconclusive: 44.7 µM [inhibitor, partial curve, poor fit]",–
COc1cccc(NC(=O)CN(C)C(=O)c2oc3c(ccc4ccccc43)c2C)c1,"inconclusive: 79.4 µM [inhibitor, partial curve, poor fit]",–
COc1ccc(Br)cc1CNC(=O)Cn1nc(C)n2cccc2c1=O,inactive,–
O=C(c1ccc(Cl)c([N+](=O)[O-])c1)N1CCN(c2ccccc2)CC1,inactive,–
COc1ccc(-n2nc(C(=O)NCC(=O)N3CCC(C(N)=O)CC3)c3ccccc3c2=O)cc1,inactive,–
O=C(OCC(=O)N1CCOCC1)c1ccc2c(c1)OCCO2,inactive,–
N#Cc1ccccc1CSc1nc2ccc(NC(=O)c3ccccc3C(=O)O)cc2s1,"inconclusive: 56.2 µM [inhibitor, partial curve, poor fit]",–
O=C(/C=C/c1ccccc1)NC(=S)Nc1ccc(N2CCOCC2)cc1,"inconclusive: 3.16 µM [inhibitor, full curve, poor fit]",–
Cc1cccc(Cn2c(N3CCN(c4ccccc4)CC3)nc3c2c(=O)n(C)c(=O)n3C)c1,"inconclusive: 31.6 µM [inhibitor, single point]",–
CCC/C(=N\NC(=O)C1CC1)c1ccc(Br)cc1,"inconclusive: 89.1 µM [inhibitor, single point]",–
CCOc1ccc2nc(SCC(=O)c3ccccc3)sc2c1,inactive,–
CN(CC(=O)Nc1cccc(F)c1)C(=O)CCCc1nc2ccccc2c(=O)[nH]1,"inconclusive: 3.16 µM [inhibitor, partial curve, poor fit]",–
CN(c1ccc(F)cc1)S(=O)(=O)c1ccc2[nH]cc(C(=O)O)c(=O)c2c1,"inconclusive: 0.447 µM [inhibitor, partial curve, poor fit]",–
CCOc1cc(/C=N\NC(=O)c2ccc(C)nc2)cc([N+](=O)[O-])c1O,"inconclusive: 50.1 µM [inhibitor, partial curve]",–
CCCNC(=S)Nc1ccc2nc(-c3ccccn3)c(-c3ccccn3)nc2c1,active: 12.6 µM,–
CC1(C)CC(=O)C(C=Nc2ccc3c(c2)OCO3)=C(O)C1,"inconclusive: 1.12 µM [inhibitor, partial curve, poor fit]",–
CCCCn1cc2c(c1-c1ccc(Cl)cc1)c(=O)n(C)c(=O)n2C,"inconclusive: 20 µM [inhibitor, partial curve, poor fit]",–

Structure (SMILES),Potency,"activity, negative = inhibition"
O=C(O)C(c1ccccc1)N1C(=O)/C(=C\c2ccc(O)c(O)c2)SC1=S (stereo unspecified),active: 7.94 µM,–
COc1ccc(C(=O)CSc2ccc(-c3ccco3)nn2)cc1,active: 22.4 µM,–
Cc1cc(N2CCN(c3ccccc3)CC2)nc2ccccc12,inactive,–
CCOC(=O)CSC1=C(C#N)C(c2ccccc2OCC)C(C(=O)OCC)C(=O)N1 (stereo unspecified),"inconclusive: 35.5 µM [inhibitor, single point]",–
CCCN(C(=O)Cn1cnc2onc(-c3ccc(F)cc3)c2c1=O)c1cccc(Cl)c1,inactive,–
Cn1cnnc1Sc1ccc(/C=C(\CCC(=O)O)c2nc3ccccc3s2)cc1[N+](=O)[O-],"inconclusive: 56.2 µM [inhibitor, partial curve]",–
C=C(C)CNC(=S)N/N=C\c1ccc2c(c1)OCO2,inactive,–
CCn1c(=S)ccc2ccc(OC)cc21,"inconclusive: 3.16 µM [inhibitor, single point]",–
CC1=Nc2ccccc2/C1=C/c1sc(=S)n(-c2cccc(C(=O)O)c2)c1O,active: 25.1 µM,–
O=c1[nH]c(=S)n(-c2cccc(C(F)(F)F)c2)c(O)c1C=NCCN1CCNCC1,inactive,–
Cc1cc(C)cc(NS(=O)(=O)c2ccc3c(c2)c(=O)n(C)c(=O)n3C)c1,"inconclusive: 3.16 µM [inhibitor, single point]",–
Cc1ccc(C)c(-c2csc(Nc3ncccn3)n2)c1,–,inactive: 67.7% [at 2.33 µM]
CC(C)(C)OC(=O)NCCC(=O)N/N=C/c1cccc2cccnc12,inactive,–
CCc1ccc(CN(Cc2cn[nH]c2-c2ccc(OC)cc2)C(=O)Nc2cc(Cl)ccc2OC)cc1,inactive,–
CCN1C(=O)/C(=C\C(=O)c2cccs2)c2cc(Br)ccc21,"inconclusive: 8.91 µM [inhibitor, partial curve, poor fit]",–
CCN(CC)C(=O)Cn1c(=O)n(Cc2ccc(C(=O)NCCc3ccc(OC)c(OC)c3)cc2)c(=O)c2ccccc21,inactive,–
C/C(N)=C(/C#N)C(=O)CSc1nnc(Cc2ccccc2F)n1N,"inconclusive: 1.58 µM [inhibitor, partial curve, poor fit]",–
O=C(NCc1ccccc1)C(c1ccc(F)cc1)N(C(=O)c1csnn1)C1CCCC1 (stereo unspecified),"inconclusive: 31.6 µM [inhibitor, single point]",–
Fc1cccc(COc2ccccc2CNc2ccccc2)c1,inactive,–
Cn1c(CN2CCCC2)c(C#N)c2ccccc21,"inconclusive: 44.7 µM [inhibitor, partial curve]",–
CCN(CC)S(=O)(=O)c1ccc(NC(=O)COC(=O)c2cnc(C)cn2)cc1,"inconclusive: 89.1 µM [inhibitor, single point]",–
Cc1ccc(C)c(S(=O)(=O)N2CCCOC2CNC(=O)C(=O)NCCc2ccccc2)c1 (stereo unspecified),"inconclusive: 2.82 µM [inhibitor, partial curve, poor fit]",–
COc1cc(OC)c(C(=O)CCCCN2CCC3(CC2)NC(=O)NC3=O)cc1NS(=O)(=O)c1ccc(C(F)(F)F)cc1,inactive,–
COCCCNC(=S)N(CCCN(C)C)Cc1cc2cc3c(cc2[nH]c1=O)OCCO3,"inconclusive: 79.4 µM [inhibitor, single point]",–

Structure (SMILES),Potency,"activity, negative = inhibition"
CC(=O)c1ccc(N2C(=O)N(CC(=O)c3ccc(F)cc3)c3ccccc3S2(=O)=O)cc1,inactive,–
Cc1ccccc1N1C(S)=C(C#N)C(=O)NC1c1cccs1 (stereo unspecified),active: 7.94 µM,–
CC(Sc1nnc(-c2ccc(OC(F)F)cc2)n1N)C(=O)NCC1CCCO1 (stereo unspecified),"inconclusive: 89.1 µM [inhibitor, single point]",–
CCSC1=NC(C)(C)C=C(/C=C/c2ccc(Cl)cc2Cl)N1,active: 50.1 µM,–
Cc1ccc(-n2ncc(C(=O)NCc3ccco3)c2C2CCN(C(=O)OC(C)(C)C)CC2)c(C)c1,"inconclusive: 14.1 µM [inhibitor, partial curve, poor fit]",–
Cc1ccc(CN(CC(O)COc2cccc3[nH]cc(C)c23)C(C)(C)C)cc1 (stereo unspecified),active: 50.1 µM,–
COc1ccc(C2=NN(CC(=O)Nc3ccccc3C)C(=O)CC2)cc1,"inconclusive: 70.8 µM [inhibitor, single point]",–
CCc1cccc(NC(=O)CCS(=O)(=O)c2ccc(Br)cc2)c1,active: 28.2 µM,–
S=C(Nc1ccc(N2CCOCC2)cc1)Nc1ccc2snnc2c1,active: 28.2 µM,–
Cc1cccc(OCC(=O)O/N=C(\N)Cc2ccc([N+](=O)[O-])cc2)c1,active: 35.5 µM,–
Cc1ccc(S(=O)(=O)N(C)C)cc1NC(=O)C1CCCN(C(=O)c2ccc(Cl)cc2)C1 (stereo unspecified),"inconclusive: 56.2 µM [inhibitor, partial curve, poor fit]",–
COc1ccc(COCC(O)CN2CCC(CN3C(=O)c4cccc5cccc(c45)C3=O)CC2)cc1OC (stereo unspecified),active: 79.4 µM,–
CCOc1ccc(NC(=O)CSc2ccc(-c3ccco3)nn2)cc1,"inconclusive: 89.1 µM [inhibitor, single point]",–
CCOc1ccc(C(=O)Nc2cccc(-c3nc4cccnc4o3)c2)cc1Cl,"inconclusive: 89.1 µM [inhibitor, single point]",–
COc1cccc(NC(=O)CCNS(=O)(=O)c2ccc3c(c2)oc(=O)n3C)c1,–,inactive: 1.31% [at 0.0925 µM]
Cc1ccc(/C=C/C(=O)OCn2nnc3ccccc3c2=O)o1,–,inconclusive: -84% [inhibitor]
COc1ccccc1-c1nnc(SCC(=O)N2CCCC2)o1,"inconclusive: 89.1 µM [inhibitor, single point]",–
Cc1ccc(NC(=S)c2ccncc2)c(C)c1,active: 79.4 µM,–
O=[N+]([O-])c1c(C(Cl)Cl)nn(-c2ccc(Cl)cc2)c1N1CCCCC1,"inconclusive: 8.91 µM [inhibitor, partial curve, poor fit]",–
COc1cc(OC)cc(C(=O)NC(=S)Nc2ccc3oc(=O)ccc3c2)c1,inactive,–
CCn1cc(C(=O)N2CCN(c3ccc(C)cc3)C(C)C2)c(=O)c2cc(S(=O)(=O)N3CCCC3)ccc21 (stereo unspecified),"inconclusive: 31.6 µM [inhibitor, partial curve, poor fit]",–
N#Cc1ccccc1NC(=O)CNc1ccc(Cl)c(C(F)(F)F)c1,"inconclusive: 44.7 µM [inhibitor, partial curve, poor fit]",–
O=C(NC1CCCCC1)C1CCN(C(=O)NCc2ccccc2)CC1,"inconclusive: 89.1 µM [inhibitor, partial curve, poor fit]",–
